In all, about 320,000 compounds went through this assay and about 9,100 (2.8%) were called active. The shares of active, inactive and inconclusive entries below differ from those in the screen. Calls follow the shape of the dose curve; as a rule, active = well fitted activation curve with a large enough effect; inconclusive = small, poorly fitted or top-dose-only effect; inactive = no such curve, though single readings can be large or run the other way. Potencies beside an inconclusive call are fits to weak or partial responses and may not hold up.
test: qHTS Assay for Rab9 Promoter Activators; details: Huh7 Rab9 promoter-luciferase reporter, luminescence, 24 h; series mostly up to 9.22 µM; also: nearly all actives have a fitted effect of over 60% in size
Outline: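 Huh7 cells stably carrying a Rab9 promoter-luciferase reporter, 1500 cells per well in OP-MEM I with 10% FBS, treated with compound 24 hours at 37C. Luciferase activity read by luminescence after 10 minutes with Amplite reagent.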
Potency is read from the fitted curve at half-maximal effect; tags tell the direction and shape of the fitted curve.

Potency, inactive:
COc1ccc(N2CC(C(=O)N[C@@H](C)C(=O)NCc3ccccc3OC)CC2=O)cc1 (stereo partly specified), CN(CC1CCCO1)S(=O)(=O)c1ccc(C(=O)Nc2ccc(S(N)(=O)=O)cc2)cc1 (stereo unspecified), CCCCCCN1C=C/C(=C\C=C(C#N)C#N)c2ccccc21, CCC(=O)c1ccc(OCC(=O)OCC(=O)N2CCc3ccccc3C2)cc1, c1ccc2oc(-c3[nH]ncc3CN3CCSCC3)cc2c1, CCOC(=O)C1(C(=O)O)NC(=O)CC1c1ccccc1 (stereo unspecified), O=S1(=O)CCN(Cc2ccccn2)CC1, O=C(NCc1ccncc1)C(=O)NC1CC1, COc1ccc(C(C(=O)NCc2ccccc2)N(Cc2ccco2)C(=O)c2snc(C(N)=O)c2N)cc1OC (stereo unspecified), COc1ccc(C(C)=O)cc1COC(=O)CCNS(=O)(=O)c1ccc(C(C)=O)cc1, COc1cccc(NC(=O)Nc2cc(C)on2)c1, COc1ccccc1CNC(=O)C1CC2Cn3c(nc4cc(C)c(C)cc43)C2N1C (stereo unspecified), O=C1SC(c2ccccc2)=C/C1=C\N1CCCCC1, O=c1c2ccccc2ncn1-c1ccc([N+](=O)[O-])cc1[N+](=O)[O-], COc1ccc(CNC(=O)C2CCN(S(=O)(=O)c3cccc4nonc34)CC2)cc1, Cc1ccc2c(c1)CCCN2C(=O)c1ccc2c(c1)OCO2, Cc1ccc(S(=O)(=O)Oc2ccc(/C=N/NC(=O)c3nn(C)cc3Cl)cc2)cc1, Cc1ccc2ncnc(Oc3ncccc3NC(=O)C(C)(C)C)c2c1, CCc1cc2cc(C)c(C)cc2nc1SCC(=O)NNC(=O)c1ccco1, Cn1cccc1/C=C1\SC(=S)N(Nc2ccccc2)C1=O, CCOC(=O)c1c(NC(=O)c2cccs2)sc2c1CC(C)(C)OC2, C/C(CC(=O)Nc1ccc2c(c1)OCCO2)=N\NC(=O)COc1ccccc1, Cc1ccc2c(CN3CC(C)CC(C)C3)cc(=O)oc2c1 (stereo unspecified), CCN(CC)c1ccc(N=Cc2cc(Br)ccc2O)cc1, CCN(C(=O)CSc1nc2ccccc2n1C)C1CCS(=O)(=O)C1 (stereo unspecified), CCCCc1cc(=O)oc2cc(OC3CCCCC3=O)ccc12 (stereo unspecified), CCc1ccc(NC(=S)N2CCC(NC(=O)C3CCCCC3)CC2)cc1, CC(C)Sc1nc2c(c(=O)n(C)c(=O)n2C)n1Cc1ccc(Cl)cc1, O=C(CC(=O)Nc1cc(Cl)ccc1Cl)Nc1cc(Cl)ccc1Cl, Cc1[nH]c2ccccc2c1-c1nc2ccccc2[nH]1

Potency, active:
Clc1ccc(-c2nnc(-c3ccccc3)o2)c(Cl)c1 891 nM, Cc1ccc(O)c(-n2nc3ccccc3n2)c1 3160 nM, CCOc1ccc(/C(O)=C2\C(=O)C(=O)N(c3ccc(OC)cc3)C2c2ccccc2[N+](=O)[O-])cc1 (stereo unspecified) 398 nM, Cc1ccc(-c2cc(C(=O)N3CCN(c4ccccc4O)CC3)c3ccccc3n2)o1 2240 nM, O=C1Nc2ccccc2S/C1=C/Nc1cccc(Cl)c1 4470 nM, c1ccc2nc(-c3ccc(-n4ccnc4)cc3)ccc2c1 631 nM, Cc1cccc(/C(N)=N/OC(=O)c2ccc(Cl)cc2Cl)c1 316 nM, CC(C)C(=O)Nc1nc(-c2ccccc2)ns1 2820 nM, Cc1nnc(CN(C)C(=O)c2cc(COc3ccc(F)cc3Cl)on2)o1 2820 nM, COc1ccccc1N/C=C/c1onc(C)c1[N+](=O)[O-] 398 nM, COc1ccc(C(=O)CSc2nccn2C)cc1 3550 nM, CN(C)c1ccc(/C=C/c2nc3ccccc3c(=O)[nH]2)cc1 89.1 nM

Potency, inconclusive:
CC(/C=N/NC(=O)c1sc(N)nc1C)=C\c1ccccc1 1260 nM [activator, partial curve], CN(Cc1cccc(-n2cccn2)c1)C(=O)CCc1nnc(C2CCCCC2)o1 3550 nM [activator, single point], O=C(Nc1ccccc1)c1cnc2n(c1=O)CCS2 3980 nM [activator, partial curve], Cc1cc(C(=O)COC(=O)c2ccc(O)cc2)c(C)n1-c1ccccc1F 5620 nM [activator, single point], NC(=O)c1ccccc1OCC(=O)Nc1ccc2c(c1)CCC2 3550 nM [activator, single point], COc1cccc(NC(=O)Nc2ccc(C(C)(C)C)cc2)c1 2510 nM [activator, partial curve], Cc1cn(CCC(=O)Nc2ccc(N3CCOCC3)cc2)c2ccccc12 3550 nM [activator, partial curve], O=[N+]([O-])c1ccccc1CSc1nc2ccccc2o1 2240 nM [activator, partial curve], COc1ccc(-n2c(C)nn(CCOc3ccccc3)c2=O)cc1 3550 nM [activator, single point], COc1cccc(C(=O)Oc2ccc(/C=N/Nc3ccc(C(=O)O)cc3)cc2OC)c1 5620 nM [activator, single point], O=C(c1ccccc1)c1nc2c(n1O)CCCCC2 3550 nM [activator, partial curve], O=C(O)c1ccccc1SCc1cn2cc(Br)ccc2n1 1580 nM [activator, partial curve], Cc1ccc(OCc2cc(C(=O)N3CCCC3)no2)cn1 1410 nM [activator, partial curve], S=C(N/N=C/c1ccccc1Cl)Nc1ccccc1 3160 nM [activator, single point], C/C(=N\O)c1ccc2c3ccccc3n(C)c2c1 2510 nM [activator, partial curve], COc1ccc(-c2nc(C#N)c(NCCc3ccccc3)o2)cc1 3550 nM [activator, partial curve], COc1cc(Cl)ccc1OCc1cc(C(=O)N(C)CCc2cnn(C)c2)no1 100 nM [activator, full curve, poor fit], CC(=O)Nc1ccc2nc(NC(=O)c3cccnc3)sc2c1 1120 nM [activator, partial curve], CCOc1ccc2c(c1)C(c1ccc(C)cc1)=NNC(c1ccc(C)cc1)=N2 1580 nM [activator, partial curve], O=C(Cc1ccccc1F)Nc1nc(-c2ccc(F)c(F)c2)cs1 2820 nM [activator, partial curve], Cc1cccc(NC(=O)CN2C(=O)N/C(=C\c3ccc(N4CCOCC4)cc3)C2=O)c1 1000 nM [activator, partial curve], O=C(Nc1nnc(S(=O)(=O)N2CCN(c3ccc(F)cc3)CC2)s1)c1ccccc1 3980 nM [activator, partial curve], O=Cc1ccc(OCc2ccc3ccccc3c2)cc1 3160 nM [activator, partial curve, poor fit], O=[N+]([O-])c1ccccc1/C=N/OCc1ccccc1 2510 nM [activator, partial curve], Nc1ccc(C(=O)OCc2nc3c(ccc4ccccc43)[nH]2)cc1 4470 nM [activator, single point], COC(=O)c1c(N)sc(C(=O)NCCc2ccccc2)c1C 2820 nM [activator, partial curve, poor fit], CC1(C)Cc2cccc(OCC(=O)NCCc3ccccc3)c2O1 2820 nM [activator, partial curve], COc1cc(OC)cc(C(=O)Nc2ccc(-c3nc4ccccc4o3)c(O)c2)c1 3160 nM [activator, partial curve], O=C(Nc1cnccn1)Nc1ccc(Cl)cc1Cl 5620 nM [activator, single point], CCOC(=O)c1c(C)c(/C=N/Nc2ccccc2)n(C)c1C 6310 nM [activator, single point], Cc1cc(OCc2ccc(C(=O)n3cccn3)o2)ccc1Cl 3160 nM [activator, partial curve], Cc1ccc(N/N=C2\CS(=O)(=O)N(C)c3ccsc32)cc1 5620 nM [activator, single point], COc1cccc(C2CCCCN2Cc2nc(-c3ccc(C)o3)oc2C)c1 (stereo unspecified) 2510 nM [activator, partial curve], CCN(CC)C(=O)c1ccc(C(=O)Nc2ccc(F)cc2)cc1 2820 nM [activator, partial curve], COc1ccc(-c2nc3nc(C)cc(C)n3n2)cc1 2820 nM [activator, partial curve], Cc1nc(Nc2cccc(O)c2)c2c3c(sc2n1)CCC3 1260 nM [activator, single point], CNC(=S)N/N=C1\C(=O)c2cccc3cccc1c23 6310 nM [activator, single point], COc1ccccc1NC(=O)c1oc2ccc(C)cc2c1C 4470 nM [activator, partial curve], Cc1ccc2oc(-c3ccco3)nc2c1 2000 nM [activator, partial curve]

From PubChem BioAssay AID485297 (National Center for Advancing Translational Sciences (NCATS), 2010)
